Data published in the supplement of paper PMC8728848.
The other results are listed elsewhere or left out.

How the values were obtained:
Assay in all cases: glycan array binding signal (z-score within array); higher = stronger binding
Conditions in all cases: glycan notation: IUPAC condensed, linker removed
Fuc(b1-3)GlcNAc = target: Fuc(b1-3)GlcNAc
Outline: (§1)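 Glycan array data came from 3228 arrays in the Consortium for Functional Glycomics database, and only arrays with an available protein sequence were kept. Glycan names were put into IUPAC-condensed notation, and columns mapping to the same glycan were averaged. The binding signal is a within-array Z-score, averaged across arrays of one protein sequence run at different concentrations or buffers and across linkers. A negative Z-score can be read as non-binding.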

Gal(a1-2)Gal = target: Gal(a1-2)Gal
Outline: as §1

Gal(a1-3)Gal = target: Gal(a1-3)Gal
Outline: as §1

Gal(a1-3)Gal(b1-3)GlcNAc = target: Gal(a1-3)Gal(b1-3)GlcNAc
Outline: as §1

[1] = target: Gal(a1-3)Gal(b1-3)GlcNAc(b1-2)Man
Outline: as §1

[2] = target: Gal(a1-3)Gal(b1-3)GlcNAc(b1-2)Man(a1-3)[Gal(a1-3)Gal(b1-3)GlcNAc(b1-2)Man(a1-6)]Man(b1-4)GlcNAc(b1-4)GlcNAc
Outline: as §1

[3] = target: Gal(a1-3)Gal(b1-3)GlcNAc(b1-3)GalNAc
Outline: as §1

[4] = target: Gal(a1-3)Gal(b1-3)GlcNAc(b1-6)GalNAc
Outline: as §1

[5] = target: Gal(a1-3)Gal(b1-3)[Fuc(a1-4)]GlcNAc(b1-2)Man(a1-3)[Gal(a1-3)Gal(b1-3)[Fuc(a1-4)]GlcNAc(b1-2)Man(a1-6)]Man(b1-4)GlcNAc(b1-4)GlcNAc
Outline: as §1

Gal(a1-3)Gal(b1-4)Glc = target: Gal(a1-3)Gal(b1-4)Glc
Outline: as §1

Gal(a1-3)Gal(b1-4)GlcNAc = target: Gal(a1-3)Gal(b1-4)GlcNAc
Outline: as §1

[6] = target: Gal(a1-3)Gal(b1-4)GlcNAc(b1-2)Man
Outline: as §1

[7] = target: Gal(a1-3)Gal(b1-4)GlcNAc(b1-2)Man(a1-3)[Gal(a1-3)Gal(b1-4)GlcNAc(b1-2)Man(a1-6)]Man(b1-4)GlcNAc(b1-4)GlcNAc
Outline: as §1

[8] = target: Gal(a1-3)Gal(b1-4)GlcNAc(b1-3)GalNAc
Outline: as §1

[9] = target: Gal(a1-3)Gal(b1-4)GlcNAc(b1-6)GalNAc
Outline: as §1

[10] = target: Gal(a1-3)Gal(b1-4)[Fuc(a1-3)]GlcNAc
Outline: as §1

[11] = target: Gal(a1-3)Gal(b1-4)[Fuc(a1-3)]GlcNAc(b1-2)Man(a1-3)[Gal(a1-3)Gal(b1-4)[Fuc(a1-3)]GlcNAc(b1-2)Man(a1-6)]Man(b1-4)GlcNAc(b1-4)GlcNAc
Outline: as §1

Gal(a1-3)GalNAc = target: Gal(a1-3)GalNAc
Outline: as §1

[12] = target: Gal(a1-3)[Gal(a1-4)]Gal(b1-4)GlcNAc
Outline: as §1

[13] = target: Gal(a1-4)Gal(b1-3)GlcNAc(b1-2)Man(a1-3)[Gal(a1-4)Gal(b1-3)GlcNAc(b1-2)Man(a1-6)]Man(b1-4)GlcNAc(b1-4)GlcNAc
Outline: as §1

Gal(a1-4)Gal(b1-4)Glc = target: Gal(a1-4)Gal(b1-4)Glc
Outline: as §1

Gal(a1-4)Gal(b1-4)GlcNAc = target: Gal(a1-4)Gal(b1-4)GlcNAc
Outline: as §1

[14] = target: Gal(a1-4)Gal(b1-4)GlcNAc(b1-2)Man(a1-3)[Gal(a1-4)Gal(b1-4)GlcNAc(b1-2)Man(a1-6)]Man(b1-4)GlcNAc(b1-4)GlcNAc
Outline: as §1

[15] = target: Gal(a1-4)Gal(b1-4)GlcNAc(b1-3)Gal(b1-4)Glc
Outline: as §1

Gal(a1-4)GlcNAc = target: Gal(a1-4)GlcNAc
Outline: as §1

Gal(a1-6)Glc = target: Gal(a1-6)Glc
Outline: as §1

Gal(b1-2)Gal = target: Gal(b1-2)Gal
Outline: as §1

Gal(b1-3)Gal = target: Gal(b1-3)Gal
Outline: as §1

Gal(b1-3)Gal(b1-4)GlcNAc = target: Gal(b1-3)Gal(b1-4)GlcNAc
Outline: as §1

[16] = target: Gal(b1-3)Gal(b1-4)GlcNAc(b1-2)Man(a1-3)[Gal(b1-3)Gal(b1-4)GlcNAc(b1-2)Man(a1-6)]Man(b1-4)GlcNAc(b1-4)GlcNAc
Outline: as §1

Gal(b1-3)GalNAc = target: Gal(b1-3)GalNAc
Outline: as §1

[17] = target: Gal(b1-3)GalNAc(a1-3)[Fuc(a1-2)]Gal(b1-4)Glc
Outline: as §1

[18] = target: Gal(b1-3)GalNAc(a1-3)[Fuc(a1-2)]Gal(b1-4)GlcNAc
Outline: as §1

Gal(b1-3)GalNAc(b1-3)Gal = target: Gal(b1-3)GalNAc(b1-3)Gal
Outline: as §1

[19] = target: Gal(b1-3)GalNAc(b1-3)Gal(a1-4)Gal(b1-4)Glc
Outline: as §1

[20] = target: Gal(b1-3)GalNAc(b1-4)Gal(b1-4)Glc
Outline: as §1

[21] = target: Gal(b1-3)GalNAc(b1-4)[Neu5Ac(a2-3)]Gal(b1-4)Glc
Outline: as §1

Gal(b1-3)GlcNAc = target: Gal(b1-3)GlcNAc
Outline: as §1

[22] = target: Gal(b1-3)GlcNAc(a1-3)Gal(b1-4)GlcNAc
Outline: as §1

[23] = target: Gal(b1-3)GlcNAc(a1-6)Gal(b1-4)GlcNAc
Outline: as §1

Gal(b1-3)GlcNAc(b1-2)Man = target: Gal(b1-3)GlcNAc(b1-2)Man
Outline: as §1

[24] = target: Gal(b1-3)GlcNAc(b1-2)Man(a1-3)[Gal(b1-3)GlcNAc(b1-2)Man(a1-6)]Man(b1-4)GlcNAc(b1-4)GlcNAc
Outline: as §1

[25] = target: Gal(b1-3)GlcNAc(b1-2)Man(a1-3)[Gal(b1-3)GlcNAc(b1-2)Man(a1-6)]Man(b1-4)GlcNAc(b1-4)[Fuc(a1-6)]GlcNAc
Outline: as §1

[26] = target: Gal(b1-3)GlcNAc(b1-2)Man(a1-3)[GlcNAc(b1-4)][Gal(b1-3)GlcNAc(b1-2)Man(a1-6)]Man(b1-4)GlcNAc(b1-4)GlcNAc
Outline: as §1

[27] = target: Gal(b1-3)GlcNAc(b1-2)[Gal(b1-3)GlcNAc(b1-6)]Man(a1-6)[Gal(b1-3)GlcNAc(b1-2)Man(a1-3)]Man(b1-4)GlcNAc(b1-4)GlcNAc
Outline: as §1

B1: HPA (Helix pomatia), Q2F1K8 (protein)
chain: MQAFYSGLLLLCVVAFAAAQRVQSGKIDCGNDAGWAKVPSDDPGRDNTRELAKNITFASPYCRPPVVLLSITQLDVEQSQNLRVIARLYSVSPTGFKASCYTWHNTKVYSMSISWISIENY
With B1 as the binder, how does the “glycan array binding signal (z-score)” value (Fuc(b1-3)GlcNAc) read?
The value was -0.219.

And the “glycan array binding signal (z-score)” value (Gal(a1-2)Gal)?
Its value is -0.187.

And the “glycan array binding signal (z-score)” value (Gal(a1-3)Gal)?
The value was -0.35.

What about the “glycan array binding signal (z-score)” value (Gal(a1-3)Gal(b1-3)GlcNAc) of the same binder?
Its value is -0.213.

What about the “glycan array binding signal (z-score)” value [1] of the same binder?
The value was -0.389.

And the “glycan array binding signal (z-score)” value [2]?
Its value is 0.

What about the “glycan array binding signal (z-score)” value [3] of the same binder?
The value was -0.108.

And the “glycan array binding signal (z-score)” value [4]?
Its value is -0.17.

And the “glycan array binding signal (z-score)” value [5]?
The value was 0.104.

What about the “glycan array binding signal (z-score)” value (Gal(a1-3)Gal(b1-4)Glc) of the same binder?
Its value is -0.125.

What about the “glycan array binding signal (z-score)” value (Gal(a1-3)Gal(b1-4)GlcNAc) of the same binder?
Its value is -0.224.

And the “glycan array binding signal (z-score)” value [6]?
The value was -0.228.

What about the “glycan array binding signal (z-score)” value [7] of the same binder?
The value was 0.004.

And the “glycan array binding signal (z-score)” value [8]?
The value was -0.167.

And the “glycan array binding signal (z-score)” value [9]?
Its value is -0.173.

What about the “glycan array binding signal (z-score)” value [10] of the same binder?
The value was -0.235.

What about the “glycan array binding signal (z-score)” value [11] of the same binder?
The value was 0.037.

What about the “glycan array binding signal (z-score)” value (Gal(a1-3)GalNAc) of the same binder?
Its value is -0.188.

What about the “glycan array binding signal (z-score)” value [12] of the same binder?
The value was -0.147.

And the “glycan array binding signal (z-score)” value [13]?
The value was -0.186.

What about the “glycan array binding signal (z-score)” value (Gal(a1-4)Gal(b1-4)Glc) of the same binder?
The value was 0.015.

And the “glycan array binding signal (z-score)” value (Gal(a1-4)Gal(b1-4)GlcNAc)?
Its value is -0.114.

And the “glycan array binding signal (z-score)” value [14]?
The value was -0.101.

And the “glycan array binding signal (z-score)” value [15]?
The value was -0.222.

And the “glycan array binding signal (z-score)” value (Gal(a1-4)GlcNAc)?
Its value is -0.263.

What about the “glycan array binding signal (z-score)” value (Gal(a1-6)Glc) of the same binder?
The value was -0.127.

And the “glycan array binding signal (z-score)” value (Gal(b1-2)Gal)?
The value was -0.074.

What about the “glycan array binding signal (z-score)” value (Gal(b1-3)Gal) of the same binder?
The value was -0.159.

What about the “glycan array binding signal (z-score)” value (Gal(b1-3)Gal(b1-4)GlcNAc) of the same binder?
The value was -0.291.

And the “glycan array binding signal (z-score)” value [16]?
The value was -1.16.

And the “glycan array binding signal (z-score)” value (Gal(b1-3)GalNAc)?
Its value is 0.332.

And the “glycan array binding signal (z-score)” value [17]?
The value was 0.102.

And the “glycan array binding signal (z-score)” value [18]?
The value was -0.604.

What about the “glycan array binding signal (z-score)” value (Gal(b1-3)GalNAc(b1-3)Gal) of the same binder?
Its value is -0.375.

And the “glycan array binding signal (z-score)” value [19]?
The value was -0.093.

And the “glycan array binding signal (z-score)” value [20]?
The value was -0.188.

What about the “glycan array binding signal (z-score)” value [21] of the same binder?
The value was -0.291.

What about the “glycan array binding signal (z-score)” value (Gal(b1-3)GlcNAc) of the same binder?
The value was -0.166.

What about the “glycan array binding signal (z-score)” value [22] of the same binder?
Its value is -0.453.

What about the “glycan array binding signal (z-score)” value [23] of the same binder?
The value was -0.214.

What about the “glycan array binding signal (z-score)” value (Gal(b1-3)GlcNAc(b1-2)Man) of the same binder?
The value was -0.119.

What about the “glycan array binding signal (z-score)” value [24] of the same binder?
Its value is 0.022.

What about the “glycan array binding signal (z-score)” value [25] of the same binder?
The value was -0.15.

What about the “glycan array binding signal (z-score)” value [26] of the same binder?
Its value is -0.092.

And the “glycan array binding signal (z-score)” value [27]?
The value was -0.35.
